Assay results: PubChem BioAssay AID1460 (National Center for Advancing Translational Sciences (NCATS), 2008)
Among all 270,000 compounds or so, about 5,800 (2.1%) were called active. The inconclusive results got no clear call from the source; some entries with a clear call stand among them for comparison. Calls follow the shape of the dose curve; as a rule, active = well fitted inhibition curve with a large enough effect; inconclusive = small, poorly fitted or top-dose-only effect; inactive = flat fitted curve, though single readings scatter. Potencies of inconclusive entries are doubtful fits and often do not repeat.

What follows are compounds tested against Microtubule-associated protein tau (Homo sapiens) (UniProt P10636) (assay: qHTS for Inhibitors of Tau Fibril Formation, Thioflavin T Binding). Conditions: recombinant tau K18 P301L (four-repeat tau fragment), heparin-induced fibrillization, ThT fluorescence; series mostly up to 57.4 µM.
Procedure, shortened: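 Heparin-induced fibrillization of the P301L-mutant K18 repeat-domain fragment of human tau was followed by ThT binding in quantitative high-throughput format.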
Also: nearly all actives have a fitted effect of over 55% in size.
Potency is read from the fitted curve at half-maximal effect; tags tell the direction and shape of the fitted curve.

Sequence of UniProt P10636 (P10636 whole entry, looked up, the tested form may be a part): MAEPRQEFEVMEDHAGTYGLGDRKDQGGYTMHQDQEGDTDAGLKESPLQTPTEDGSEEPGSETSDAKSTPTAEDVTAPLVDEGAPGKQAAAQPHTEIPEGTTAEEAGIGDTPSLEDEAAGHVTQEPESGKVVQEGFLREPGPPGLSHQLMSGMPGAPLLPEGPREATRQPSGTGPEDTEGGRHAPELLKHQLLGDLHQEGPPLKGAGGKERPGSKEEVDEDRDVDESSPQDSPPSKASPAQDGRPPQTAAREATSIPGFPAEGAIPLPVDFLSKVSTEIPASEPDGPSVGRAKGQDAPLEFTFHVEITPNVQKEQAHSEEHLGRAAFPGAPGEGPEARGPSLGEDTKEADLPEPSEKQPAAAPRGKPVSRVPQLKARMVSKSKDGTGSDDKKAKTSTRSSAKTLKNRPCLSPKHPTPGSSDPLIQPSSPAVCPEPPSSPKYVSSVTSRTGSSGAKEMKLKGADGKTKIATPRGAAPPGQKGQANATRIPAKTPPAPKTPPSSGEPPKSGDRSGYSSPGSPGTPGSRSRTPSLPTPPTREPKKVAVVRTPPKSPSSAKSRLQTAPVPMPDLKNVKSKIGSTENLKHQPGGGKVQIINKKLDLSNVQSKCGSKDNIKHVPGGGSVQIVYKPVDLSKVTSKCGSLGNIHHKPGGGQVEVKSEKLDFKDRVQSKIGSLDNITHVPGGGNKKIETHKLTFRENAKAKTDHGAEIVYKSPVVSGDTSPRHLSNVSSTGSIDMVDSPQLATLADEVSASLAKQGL

| Structure (SMILES) | Potency |
| --- | --- |
| O=C(O)c1ccccc1NS(=O)(=O)c1ccc(NNC(=S)Nc2ccc(OC(F)F)cc2)c([N+](=O)[O-])c1 | active: 7.08 µM |
| COc1ccc(-n2c(SC)nc3sc4c(c3c2=O)CCN(C(C)=O)C4)cc1 | inconclusive: 31.6 µM [inhibitor, single point] |
| O=C(NN=C1CCN(Cc2ccccc2)CC1)c1cc2ccccc2cc1O | active: 12.6 µM |
| CCc1cc2c(nc1CC)CCN(CC/C(C)=N/O[C@@H](C)CN1CCCc3nc(C)c(C)cc31)C2 | inconclusive: 7.08 µM [inhibitor, single point] |
| CC1(C)Cc2ccccc2-c2c1c(=O)n(Cc1ccccc1)c1nnnn21 | inactive |
| CCOC(=S)SCC(=O)Nc1ncc(C)s1 | inconclusive: 4.47 µM [inhibitor, full curve] |
| CSc1ccccc1NC(=O)Nc1cccc(F)c1 | inconclusive: 39.8 µM [inhibitor, partial curve] |
| Cc1ccccc1Nc1nnc(SCC(=O)NC2CCCc3ccccc32)s1 (stereo unspecified) | inactive |
| O=C(c1ccc2c(c1)N(Cc1cccc(Cl)c1)C(=O)c1ccccc1S2(=O)=O)N1CCc2ccccc21 | inactive |
| COc1ccc(C2=CC3=C(Br)C(=O)C(C)(OC(=O)c4cnc5ccccc5n4)C(=O)C3=CO2)cc1 (stereo unspecified) | inconclusive: 3.98 µM [inhibitor, single point] |
| COc1ccc(/C=C/c2nnc(NC(=O)COc3ccccc3)s2)cc1 | inconclusive: 0.316 µM [inhibitor, full curve] |
| O=C(Nc1ccccc1Cl)c1ccc2nsnc2c1 | inactive |
| CCOC(=O)c1ccc(CN(Cc2ccc(F)cc2)S(=O)(=O)c2ccc(F)c(C(=O)Nc3ccccc3C(F)(F)F)c2)cc1 | inactive |
| O=C1c2ccccc2-c2onc3ccc(Oc4ccccc4)c1c23 | active: 4.47 µM |
| COC(=O)c1ccc(NS(=O)(=O)c2ccc3c(c2)n(C)c(=O)c(=O)n3C)cc1 | inactive |
| COc1ccc(N2C(=S)NC3N2C(=S)NC3(C)c2ccccc2)cc1 (stereo unspecified) | inconclusive: 22.4 µM [inhibitor, single point] |
| O=C1/C(=C/c2cccnc2)SC(=S)N1CCc1ccccc1 | inconclusive: 0.794 µM [inhibitor, full curve, poor fit] |
| CC(C)(CC(=O)NCc1ccc(Cl)cc1Cl)CC1=NS(=O)(=O)c2ccccc2N1 | inactive |
| Cn1c(=O)cc(NCc2ccccc2)[nH]c1=O | inactive |
| COc1ccc(S(=O)(=O)c2cc3cc(C(C)(C)C)cc(O)c3oc2=O)cc1 | inconclusive: 39.8 µM [inhibitor, single point] |
| CC(NS(=O)(=O)c1ccccc1)C(c1cccs1)N1CCOCC1 (stereo unspecified) | inactive |
